Whole data set: some 33,000 sequences, median “E-score (-0.5 to 0.5)” near -0.013, cut for the highest 2% near 0.3. The list shows a part of the results.
target: T1, Msn1 (UniProt P22148); test: PBM E-score (8-mer binding enrichment) (E-score (-0.5 to 0.5)); higher = stronger / more preferred TF binding; most listed sequences are background and not binding sites; details: protein concentration: 200 nM; construct: GST-full length
T1 sequence: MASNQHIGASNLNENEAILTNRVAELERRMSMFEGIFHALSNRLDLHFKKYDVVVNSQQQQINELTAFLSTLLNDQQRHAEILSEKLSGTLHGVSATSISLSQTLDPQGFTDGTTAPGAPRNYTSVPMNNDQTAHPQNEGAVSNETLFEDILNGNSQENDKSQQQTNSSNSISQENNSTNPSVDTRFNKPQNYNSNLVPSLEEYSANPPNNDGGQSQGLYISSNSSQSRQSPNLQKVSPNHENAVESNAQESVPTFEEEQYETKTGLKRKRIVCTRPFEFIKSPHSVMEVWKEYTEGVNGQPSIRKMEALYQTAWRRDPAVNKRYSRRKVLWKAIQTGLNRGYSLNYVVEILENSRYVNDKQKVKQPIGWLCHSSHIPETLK
Summary of the method: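 Yeast transcription factors, full-length or as DNA-binding domains, were expressed with a GST tag using PURExpress in vitro transcription/translation. At about 100-200 nM they were applied to universal all-10-mer Agilent arrays, double-stranded by primer extension on fresh or once-stripped slides. Fluorescent anti-GST detected bound protein, and masliner normalised the scans. E-scores for ungapped eight-base words, pooled with reverse complements, came from the Universal PBM Analysis Suite.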

Row | Sequence | PBM E-score
1 | CCGTGTGC | -0.119
2 | GGACAGCC | 0.0355
3 | GGCCGACA | -0.0491
4 | CGCAGCCC | -0.0555
5 | GCGCTAGC | -0.0831
6 | AACCCTCA | -0.0231
7 | CGGCTTCC | -0.237
8 | AGCGGCCG | 0.0864
9 | AGGCTGCA | -0.00397
10 | ACTGAACT | 0.0175
11 | GACCTATA | 0.226
12 | GGGAGAAA | -0.0931
13 | GTGTATTA | 0.227
14 | CAGGTTGC | 0.0156
15 | CCGGCTAG | -0.141
16 | GGCCACCC | -0.264
17 | AGTGCACT | 0.0224
18 | AAACCGGC | 0.134
19 | CCTATCAC | -0.127
20 | GCTTGCAC | -0.0955
21 | AGGAATAT | 0.16
22 | ATTAGGCA | -0.145

Row | Sequence | PBM E-score
23 | CGAGACGA | -0.0129
24 | GGCGCCCC | -0.185
25 | AGCGCATC | -0.114
26 | TGCTGAAA | -0.141
27 | ATGCCATG | 0.0799
28 | CATCGCGG | 0.17
29 | CTGTCTCC | -0.047
30 | ACGCTCCT | -0.113
31 | TACAGGTA | -0.12
32 | AAATCACT | -0.004
33 | GAACATCC | 0.162
34 | CCCATACC | -0.237
35 | AACTAGAT | -0.00608
36 | GACGGCGC | -0.127
37 | AGCGCAAA | 0.0365
38 | GGAAAAAC | 0.124
39 | GTGCTAGA | 0.056
40 | GCAGTGAC | -0.0976
41 | GGCATTCA | -0.178
42 | ACGAAGCC | 0.0406
43 | GACCACGA | -0.0658
44 | ATGACGTG | -0.0956

Row | Sequence | PBM E-score
45 | CACGCGTA | 0.0651
46 | AATGCTGC | -0.15
47 | CTGTACCA | -0.0839
48 | ACACTAAG | -0.0306
49 | TCTATGCA | 0.0382
50 | AAGTGTGA | -0.0471
51 | GCCACGCA | -0.207
52 | ATCTGGAA | -0.0683
53 | CAAGGGGG | -0.253
54 | CCGTACAC | 0.0554
55 | ATAGTAAT | 0.0913
56 | AGACCAGG | -0.179
57 | AGTTACAA | -0.0109
58 | CGTCCTAC | 0.157
59 | TCCTTACA | 0.0543
60 | CATGTCGA | 0.139
61 | TAATTTGA | -0.0805
62 | TACTTATA | 0.127
63 | AAAGATCT | -0.0783
64 | AAACCTTT | -0.147
65 | ATCTCGCC | -0.165
66 | TCCGGCCA | 0.00555

Row | Sequence | PBM E-score
67 | ATACGTTG | -0.174
68 | CGCATCAC | -0.1
69 | TATAGCCA | 0.0211
70 | CGGCGGCA | -0.105
71 | CGGCAGTC | -0.0355
72 | CCAGTTCC | -0.19
73 | AAGCTAGT | 0.00994
74 | AACCAATT | 0.0568
75 | CTTTGAAA | -0.00217
76 | TCAGTCCA | -0.0538
77 | GCTGTCCA | 0.159
78 | ATCAATAA | 0.0916
79 | AAGTCGAA | 0.0653
80 | CGCTGCGC | -0.118
81 | AACCGCTA | -0.0103
82 | CGTCAAAC | 0.0107
83 | AACAACGA | 0.139
84 | CAGGGCGG | -0.18
85 | AATGACAA | 0.29
86 | AGGTCACA | -0.146

— the supplement of paper PMC3334620
